# Measured values published in PubChem BioAssay AID463173 (ICCB-Longwood Screening Facility, Harvard Medical School, 2010).
# The campaign covered roughly 52,000 compounds. About 4,300 (8.3%) were called active. No stated cut-off is given here; in the data, active means survival mostly below about 52% (no sharp cut-off); inactive means mostly above about 56%. Some of the results follow.
# System: DeltatarO mutant
# Assay: growth inhibition of S. aureus wild type versus tarO mutant, primary screen, teichoic acid synthesis inhibitors, RN4220, OD600 (AID 463173)
# Conditions: OD600, 18 h, stronger effect = lower value, screened at 18.75 µg/mL (by protocol)
row,Structure (SMILES),survival
1,CCOC(=O)c1ccc(NC(=O)c2oc3ccc4c(c3c2C)C(=O)CC(C)(CC)O4)cc1 (configuration not stated),inactive: 85%
2,CCOC(=O)C1CCCN(c2ncnc3c2cnn3-c2ccc(C)c(Cl)c2)C1 (configuration not stated),inactive: 88%
3,O=C(OC1OCCOC1OC(=O)C1CCCCC1)C1CCCCC1 (configuration not stated),inactive: 90%
4,CC(C)c1ccc(CNCCSc2nnnn2C)cc1,inactive: 88%
5,Cc1ccc(S(=O)(=O)N=C2SCCCS2)cc1,inactive: 91%
6,CC(=O)Nc1c(C)nn(-c2ccccc2)c1N1CCC(C(=O)Nc2cc(Cl)ccc2C)CC1,inactive: 86%
7,CCc1ccccc1NC(=O)c1cc(S(=O)(=O)NCCc2ccc(OC)c(OC)c2)ccc1F,active: 8%
8,COc1ccc(OCC(=O)Nn2cnnc2)cc1,inactive: 73%
9,Cc1nc2c(-c3ccccc3)c(C)nn2c(C)c1CCC(=O)NCc1cccc(Cl)c1,inactive: 109%
10,Cc1nnc(NC(=O)c2nc(S(=O)(=O)Cc3ccccc3)ncc2Cl)s1,active: 48%
11,CN1CCN(CCCNC(=O)c2cnn(-c3ccccc3)c2C2CCN(C(=O)OC(C)(C)C)CC2)CC1,inactive: 119%
12,CCC(C)NC(=O)c1ccc2c(c1)N(Cc1ccccc1)C(=O)c1ccccc1S2(=O)=O (configuration not stated),inactive: 56%
13,Cc1ccc2nc(-c3ccccn3)c(Nc3ccc(F)cc3)n2c1,active: 10%
14,CCC(Oc1ccccc1)C(=O)Nc1ccccc1OCc1cc(=O)n2ccccc2n1 (configuration not stated),inactive: 94%
15,CC1=C(C(=O)Nc2ccc(Cl)cc2)C(C(C)C)n2nc(SCc3cccc(C)c3)nc2N1 (configuration not stated),inactive: 90%
16,CCOC(=O)c1c(C)c(C(=O)NCCc2ccc(OC)cc2)c(C)n1C,inactive: 99%
17,CCc1nn(CC(=O)Nc2cccc(C)c2C)c(=O)c2cc3sccc3n12,inactive: 81%
18,Cc1cccc(CNC(=O)c2cnc3sc(N4CCCCC4)nn3c2=O)c1,inactive: 113%
19,Cc1ccc(CCNC(=O)C2CCCN(Cc3nc(-c4cccc(Cl)c4)oc3C)C2)cc1 (configuration not stated),active: 25%

row,Structure (SMILES),survival
1,CN(C(=O)CSc1cn(CC(=O)N2CCCCC2)c2ccccc12)c1ccccc1,inactive: 80%
2,O=C(Cc1ccc(F)cc1)N1CCC(c2nc3c(nnn3Cc3ccc(Cl)cc3)c(=O)[nH]2)CC1,active: 27%
3,COc1ccc(/C=C/c2nc(C#N)c(N3CCN(c4ccccc4)CC3)o2)cc1OC,inactive: 88%
4,CCc1ccc(NC(=O)Cn2cnc3sc(C)c(S(=O)(=O)N4CCC(C)CC4)c3c2=O)cc1,inactive: 78%
5,CCCC(=O)NCC(c1ccc2c(c1)OCO2)N1CCN(c2ccc(F)cc2)CC1 (configuration not stated),inactive: 78%
6,COc1ccc(-c2nc3c(C#N)c[nH]n3c2NC2CCCCC2)c(OC)c1,inactive: 55%
7,COc1ccc(-n2ncc(C(=O)NCc3ccccc3)c2C2CCN(C(=O)OC(C)(C)C)CC2)cc1,inactive: 70%
8,Cc1sc2nc(CN(CCc3ccccc3)C(=O)c3ccco3)[nH]c(=O)c2c1C,inactive: 83%
9,COc1cccc(-n2ccnc2SCC(=O)Nc2cccc(C)c2C)c1,inactive: 90%
10,O=C(CN1CCC(n2nnc3ccccc32)CC1)Nc1cccc(F)c1,inactive: 95%
11,Cc1cc2c(cc1S(=O)(=O)NCc1ccc(N(C)C)cc1)OCC(=O)N2,inactive: 80%
12,CCCN(C(=O)c1cc2c(s1)-c1ccccc1SC2)c1ccccc1F,active: 1%
13,COc1ccc(N(CC(=O)NC(C)c2ccccc2)S(=O)(=O)c2c(C)noc2C)cc1 (configuration not stated),inactive: 88%
14,CC1(c2ccc(Cl)cc2)CC(C)(C)N(C(=O)c2ccccc2)c2ccccc21 (configuration not stated),active: -4%
15,Cc1ccc(CN2CCC(CNc3ncnc4onc(-c5ccc(Cl)cc5)c34)CC2)cc1,inactive: 80%
16,COc1ccc(CCNC(=O)CCn2c(=O)c3cccn3c3ccc(F)cc32)c(OC)c1OC,active: 39%
17,Cc1ccc(OCc2nc3ccccc3n2CC(C)C)cc1,active: 1%
18,CCOc1ccccc1CNC(=O)Nc1cn(CC(C)C)c(=O)c2ccccc12,inactive: 99%
19,CC(=O)N1c2ccccc2CC1C(=O)N1CCN(c2ccc(F)cc2)CC1 (configuration not stated),inactive: 113%

row,Structure (SMILES),survival
1,COc1ccc(C)cc1NC(=O)c1oc2ccc(S(=O)(=O)N(C)C3CCCCC3)cc2c1C,inactive: 80%
2,COC(=O)C1CCN(S(=O)(=O)c2cc3c4c(c2)C(C)C(=O)N4CCC3)CC1 (configuration not stated),inactive: 99%
3,CCOC(=O)/C(C#N)=C\N1CCOCC1,inactive: 81%
4,CC(C)(C)c1cc(C(C)(C)C)c2oc(=O)c(-c3nc4ccccc4[nH]3)cc2c1,inactive: 69%
5,O=C(CSc1nc2ccccc2c2nc(-c3ccccc3)nn12)Nc1ccc(Br)cc1,inactive: 94%
6,CCc1cc(C(=O)Nc2c(C)nn(Cc3ccc(C)cc3)c2C)no1,inactive: 64%
7,Cc1ccc(Cn2c(SCC(=O)NCc3ccc(Cl)cc3)nc3ccsc3c2=O)cc1,inactive: 120%
8,CCOC(=O)c1noc2ncnc(N3CCN(c4ccccc4OC)CC3)c12,inactive: 77%
9,CCOC(=O)c1c(C)c(-c2ccccc2)n(CC(=O)Nc2cc(OC)cc(OC)c2)c1C,inactive: 66%
10,COc1cc(C2NC(=O)NC(C)=C2C(=O)Nc2cc(C)cc(C)c2)ccc1O (configuration not stated),active: 38%
11,CC(C)(C)NS(=O)(=O)c1ccc2nc(NC(=O)c3cccnc3)sc2c1,inactive: 86%
12,COC(=O)CNC(=O)Nc1cc(C(=O)NCc2ccc(C)cc2)ccc1N1CCCC1,inactive: 76%
13,CC(C(=O)O)c1n[nH]c(=O)c2ccccc12 (configuration not stated),inactive: 91%
14,Cc1ccc(Cl)cc1N1CCN(C(=O)c2cn(C3CCCCC3)c(=O)c3c2c2ccccc2n3C)CC1,inactive: 71%
15,CN(C)c1ccc(C(CNC(=O)COc2ccc(Cl)cc2)N2CCOCC2)cc1 (configuration not stated),inactive: 55%
16,COc1cccc(N2CCN(C(=O)C3CCC(CNS(=O)(=O)c4ccc(Br)s4)CC3)CC2)c1 (configuration not stated),inactive: 78%
17,CCS(=O)(=O)N1CC(=O)N(c2ccccc2C)C(C)(C(=O)NC2CCCCC2)C1 (configuration not stated),inactive: 84%
18,COCCCNC(=O)Cn1c(=O)n(-c2ccc(C)cc2)c(=O)c2c1c1cc(C)ccc1n2C,inactive: 77%
19,COc1ccc2c(c1)CCN(Cc1cc3sccc3n1CC1CCCCC1)C2,inactive: 71%
